Source: PubChem BioAssay AID485364 (National Center for Advancing Translational Sciences (NCATS), 2010)
Among all 360,000 compounds or so, about 11,000 (3.1%) were called active. This list was built around the results that the source calls inconclusive (neither active nor inactive); the mix of calls is not that of the screen. Calls come from the whole dose curve; as a rule, active = well fitted inhibition curve with a large enough effect; inconclusive = small, poorly fitted or top-dose-only effect; inactive = no such curve, though single readings can be large or run the other way. No potency is given beside an inconclusive call; the fits are too rough.

target: Schistosoma mansoni thioredoxin glutathione reductase (TGR) (UniProt Q962Y6); experiment: qHTS Assay for the Inhibitors of Schistosoma Mansoni Peroxiredoxins; settings: purified TGR, DTNB reduction, TNB absorbance 405 nm; series mostly up to 114 µM; note: nearly all actives have a fitted effect of over 60% in size
Method in brief: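 TGR 20 nM + NADPH 100 uM (dispensed conc.), cpd preinc 15 min RT; start with NADPH (500 uM addition) then DTNB (15 mM addition). Kinetic TNB absorbance, 405 nm filter. Four-parameter Hill fit across titration.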
Potency is the fitted concentration of half-maximal effect; tags give direction and shape of the fitted curve.

Row | Structure (SMILES) | Potency
1 | CCN1CCN(C(CNS(=O)(=O)c2ccc(Cl)cc2)c2ccccc2)CC1 (stereo unspecified) | inactive
2 | NC(=O)c1ccc(-c2ccc(Br)cc2)o1 | active: 39.8 µM
3 | CCCN1CC=C2C(C#N)=C(N)C(C#N)(C#N)C(c3cccc(OC)c3OC)C2C1 (stereo unspecified) | inconclusive [inhibitor, partial curve]
4 | Clc1ncc(CN2CCN(Cc3ccccc3)CC2)s1 | inconclusive [inhibitor, partial curve]
5 | COc1ccc(Cc2noc(CN3CCCN(Cc4ccc(F)cc4)CC3)n2)cc1OC | inconclusive [inhibitor, single point]
6 | COc1ccc(-c2noc(CSc3nnc(CCc4ccccc4)n3-c3ccccc3)n2)cc1OC | inactive
7 | O=C(Cc1ccsc1)Nc1ccc2c(c1)OCO2 | inconclusive [inhibitor, single point]
8 | Cc1ccc(/C=C/C(=O)N2CCN(c3ccc(F)cc3)CC2)o1 | active: 50.1 µM
9 | O=C1CCN(Cc2ccc(O)cc2)CCN1CCO | inconclusive [inhibitor, partial curve, poor fit]
10 | Cc1c(C)n(C)c2ccc(C(=O)NCCCN3CCN(c4ccccc4F)CC3)cc12 | inactive
11 | C[C@H](NC(=O)[C@@H]1CCC(=O)N1Cc1ccco1)c1ccccc1 | active: 50.1 µM
12 | CCCCn1c(N)c(N(C(=O)CSc2nnnn2-c2ccccc2)C2CCCC2)c(=O)[nH]c1=O | inconclusive [inhibitor, partial curve]
13 | CCc1ccc(NC(=O)Cn2c(C(=O)OC)cc3oc(C)cc32)cc1 | inconclusive [inhibitor, partial curve]
14 | CC(C)c1onc(C(=O)NC(C)c2ccccc2)c1[N+](=O)[O-] (stereo unspecified) | active: 39.8 µM
15 | O=C(CSc1nc(-c2ccco2)nc2cc(=O)[nH]n12)Nc1ccc(F)cc1 | inconclusive [inhibitor, partial curve]
16 | O=C(c1ccccc1)n1c(=O)c(F)cn(COCCBr)c1=O | inconclusive [inhibitor, full curve]
17 | CC(=O)c1ccc(N2CCN(C(=O)Nc3cn(CC(C)C)c(=O)c4ccccc34)CC2)cc1 | inactive
18 | Cc1ccc(N(Cc2cc3ccccc3[nH]c2=O)C(=O)c2cccs2)cc1C | inactive
19 | COc1ccc(-n2c(=O)cc(N3CCN(Cc4ccccc4)CC3)[nH]c2=O)cc1 | inconclusive [inhibitor, full curve, poor fit]
20 | Cc1ccnc(SC2CC(=O)N(c3ccc([N+](=O)[O-])cc3)C2=O)n1 (stereo unspecified) | active: 22.4 µM
21 | COC(=O)c1cc(NC(=O)c2cccc(C(F)(F)F)c2)c(=O)oc1C | inconclusive [inhibitor, partial curve]
22 | O=c1c2c3c(sc2nc2n1CCCC2)CCCCC3 | inactive
23 | Cc1ccc(C)c(NC(=S)NNC(=O)c2sccc2C)c1 | inactive
24 | N#C/C(=C\c1ccc(N2CCCCC2)o1)C(N)=O | inconclusive [inhibitor, partial curve]

Row | Structure (SMILES) | Potency
25 | COc1ccc(Cn2c(N)c(C(=O)NCc3ccco3)c3nc4ccccc4nc32)cc1OC | active: 35.5 µM
26 | CCc1nc2oc3ccccc3c(=O)c2c(=O)n1CCOC | inconclusive [inhibitor, full curve, poor fit]
27 | Nc1c2nc(-c3ccccc3Cl)[nH]c(=O)c2nc(=O)n1-c1ccccc1 | inconclusive [inhibitor, partial curve]
28 | O=C(O)[C@@H]1CSC2(CCSC2)N1 (stereo partly specified) | inconclusive [inhibitor, single point]
29 | Cc1[nH]c(=O)[nH]c(=O)c1/C=N/NC(=O)[C@@H](N)CC(C)C | inconclusive [inhibitor, partial curve, poor fit]
30 | O=C(CCCCn1c(=O)[nH]c2ccccc2c1=O)NCc1ccc2c(c1)OCO2 | active: 2.51 µM
31 | Cn1cc(/C=C2\C(=O)NC(=O)N(c3ccccc3)C2=O)c2ccccc21 | inconclusive [inhibitor, partial curve]
32 | Cc1ccc(S(=O)(=O)/N=C(/NC(=S)Nc2cccc(C)c2)c2ccccc2)cc1 | inconclusive [inhibitor, full curve]
33 | Cc1ccc(N2C(=O)C3C4C=CC(CNC(=S)N5CCN(c6cccc(C)c6)C(C)C5)(O4)C3C2=O)cc1 (stereo unspecified) | active: 3.16 µM
34 | CCCCNC(=O)Cn1c(=O)cc(C)c2c(C)nn(-c3cccc(Cl)c3C)c21 | inconclusive [inhibitor, single point]
35 | Cc1nn(CCO)c2ncc(C(=O)c3cc(F)ccc3O)cc12 | inactive
36 | CC1(C)OC(=O)N(Cc2ccco2)C1(C)O (stereo unspecified) | inconclusive [inhibitor, full curve, poor fit]
37 | O=C(O)c1cccc(-n2cccc2/C=C2/NC(=O)N(c3ccc(Cl)cc3)C2=O)c1 | inconclusive [inhibitor, partial curve]
38 | COc1ccc(CC(NC(C)=O)C(=O)NC2CCN(c3c(Cc4ccccc4)c(C)nc4ncnn34)CC2)c(OC)c1 (stereo unspecified) | inactive
39 | C=C(C)C1Cc2c(C)nn(-c3nc(C)cc(C)n3)c2C1 (stereo unspecified) | inconclusive [inhibitor, partial curve]
40 | O=c1c(C/C=C/c2ccccc2)c(O)ccn1CCc1c[nH]c2ccccc12 | inactive
41 | CCC(Cc1ccccc1)NS(=O)(=O)c1ccc2c(c1)NC(=O)C(C)S2 (stereo unspecified) | inconclusive [inhibitor, single point]
42 | CN(CC(=O)NC(=O)NCc1ccco1)Cc1nc2ccccc2c(=O)[nH]1 | inconclusive [inhibitor, single point]
43 | COC(=O)c1ccc(C(C(=O)NC2CCCCC2)N(Cc2ccc(F)cc2)C(=O)Cc2cccs2)cc1 (stereo unspecified) | inactive
44 | Cc1cc(C(=O)N2CCN(c3ccccc3)CC2)no1 | inconclusive [inhibitor, full curve, poor fit]
45 | CCOc1ccc(C(C)=O)cc1COc1ccc(C)nc1[N+](=O)[O-] | active: 10 µM
46 | CS(=O)(=O)c1ncc(N(Cc2ccco2)Cc2cccs2)c(C(=O)Nc2ccccc2F)n1 | inactive
47 | Nc1ncc([N+](=O)[O-])c(Oc2ccccc2F)n1 | inconclusive [inhibitor, partial curve]
48 | COc1ccc(-c2csc(NC(C)=O)n2)cc1OC | inactive

Row | Structure (SMILES) | Potency
49 | CC(/C=C1\NC(=S)NC1=O)=C\c1ccccc1 | inconclusive [inhibitor, partial curve]
50 | CCc1ccc2c(c1)C1(NN=C(c3ccccc3)S1)C(=O)N2 (stereo unspecified) | inconclusive [inhibitor, partial curve]
51 | CCc1c(C)sc2c1CCN(C(=O)Nc1ccccc1Cl)C2c1ccc(OC)cc1 (stereo unspecified) | inactive
52 | O=C(c1ccc(-c2cccc(C(F)(F)F)c2)o1)N1CCCCCCC1 | inconclusive [inhibitor, partial curve]
53 | CS(=O)(=O)c1ncc(Cl)c(C(=O)N(Cc2ccc(Cl)cc2)Cc2ccco2)n1 | active: 1.78 µM
54 | COc1cc(C(=O)Nc2sc3c(c2C#N)CCCC3)c(Br)c(OC)c1OC | inactive
55 | CCOc1ccccc1CNC(=O)c1ccc2c(c1)N(CC)CCS2 | inconclusive [inhibitor, single point]
56 | Cc1cccc2c1NC1(CCCC1)CC2C (stereo unspecified) | inconclusive [inhibitor, partial curve]
57 | COc1ccccc1CN1C[C@@H]2C[C@@H](c3ccc4nsnc4c3)N3CCC[C@@]23C1=O | inconclusive [inhibitor, partial curve]
58 | C=CCc1ccccc1OCC(O)CN(CC)CC (stereo unspecified) | inconclusive [inhibitor, single point]
59 | O=c1c(Cl)c(Cl)cnn1Cc1nnc(-c2ccccc2Br)o1 | active: 6.31 µM
60 | O=C(Cn1c(-c2cccs2)cc2ccccc21)NCCCN1CCN(c2cccc(Cl)c2)CC1 | inconclusive [inhibitor, single point]
61 | Cc1ccc(C(=O)N/N=C/c2ccc(-c3ccc(Br)cc3[N+](=O)[O-])o2)o1 | active: 50.1 µM
62 | CCOC(=O)N1CCC(NC(=O)c2ccc(CS(=O)(=O)c3c(Cl)cccc3Cl)o2)CC1 | inconclusive [inhibitor, full curve]
63 | CN(Cc1c(C(=O)N2CCCCCCC2)nc2ccc(Cl)cn12)C1CCOC1 (stereo unspecified) | inconclusive [inhibitor, full curve]
64 | COc1cc(OC)c(NC(=O)CS(=O)(=O)Cc2nc(-c3ccc(C)cc3)oc2C)cc1Cl | inconclusive [inhibitor, partial curve]
65 | Cc1ccccc1/C=C/C1=NCCN1 | inactive
66 | COc1ccc(N2CCN(C(=O)CCCn3c(=O)[nH]c4cc(Cl)ccc4c3=O)CC2)cc1 | inconclusive [inhibitor, partial curve]
67 | NC(=O)C1CCN(C(=O)CC2C(=O)NCCN2Cc2cccc(Oc3ccccc3)c2)CC1 (stereo unspecified) | inconclusive [inhibitor, single point]
68 | CC1CCCCN1CCNC(=O)C1CCN(S(=O)(=O)c2cccc3cccnc23)CC1 (stereo unspecified) | inactive
69 | Cc1ccc(CNC(=O)c2cc3c(-c4ccc(Cl)cc4)nn(C)c3s2)o1 | inconclusive [inhibitor, partial curve]
70 | O=S(=O)(Nc1ccc(N2CCOCC2)cc1)c1c(F)cc(F)cc1Br | inconclusive [inhibitor, partial curve]
71 | CN1C(=O)Cc2cc(S(=O)(=O)CCC(=O)N3CCN(c4ccc(Cl)cc4)CC3)ccc21 | inconclusive [inhibitor, partial curve]
